Entries after “also recorded” stand apart in the source; their conditions may differ.
Experiments:
[1] = system: cKIT on normal human CD34+ bone marrow cells; experiment: Internalization, cKIT receptor levels by flow cytometry; format: cell-based; details: 10 μg/ml; for internalization of surface cKIT: 37° C., FIG. 13B
Protocol: In another internalization experiment, the impact of NEG085 on cKIT receptor levels was evaluated on human bone marrow cells. Normal human CD34+ bone marrow cells (All Cells, Cat #ABM022F, Emeryville, Calif.) were thawed and washed with 10 mL of StemPro®-34 SFM medium (Gibco, Life Technologies, Carlsbad, Calif.). Cells were resuspended in 1.25 mL of StemPro-34 SFM medium at 4×10^5 cells/mL and split equally into two tubes. […] 100 μL of cell suspension was collected at each timepoint (0, 15, 30, 60, 120, and 240 min) from each condition, and placed into an ice cold collection tube to cease internalization. Cells were washed with 3 mL of ice-cold FBS stain buffer and resuspended in 100 μL of FBS stain buffer. […] of 104D2-BV421 (mouse anti-human IgG1 k, Biolegend, San Diego Calif.) was added to each tube and incubated on ice for 1 hour. Following another wash with FBS stain buffer, total cKIT receptors were measured by flow cytometry by assessing the mean fluorescence intensity of BV421 on a FACS Canto II® (BD Biosciences, San Jose, Calif.).

primary human mast cells [2] = experiment: Mast cell degranulation (β-hexosaminidase release); format: cell-based; details: 0.05-100 nM, 90 min, FIG. 19
Protocol: Primary human mast cells were cultured from peripheral human blood according to the methods described by Saito et al., (supra). […] Cells were then centrifuged and the supernatants were transferred into 96-well black-walled plates prior to the addition of the β-hexosaminidase substrate. Following 90 min incubation at 37° C., the reaction was stopped by the addition of tris-base (Sigma, Cat # T1503-500G, pH 12, St. Louis, Mo.) and the fluorescence intensity was recorded on the Envision® plate reader.

rat cKIT ECD = experiment: SPR (Biacore 2000) affinity measurement; format: binding; details: 25° C., antibody captured, ECD in solution
Protocol: Affinity of the antibodies to cKIT species orthologues and also to cKIT was determined using SPR technology using a Biacore® 2000 instrument (GE Healthcare, Pittsburgh, Pa.) and with CM5 sensor chips.
Briefly, HBS-P (0.01 M HEPES, pH 7.4, 0.15 M NaCl, 0.005% Surfactant P20) supplemented with 2% Odyssey® blocking buffer (Li-Cor Biosciences, Lincoln, Nebr.) was used as the running buffer for all the experiments. The immobilization level and analyte interactions were measured by response unit (RU). Pilot experiments were performed to test and confirm the feasibility of the immobilization of the anti-human Fc antibody (Catalog number BR100839, GE Healthcare, Pittsburgh, Pa.) and the capture of the test antibodies.
For kinetic measurements, the experiments were performed in which the antibodies were captured to the sensor chip surface via the immobilized anti-human Fc antibody and the ability of the cKIT proteins to bind in free solution was determined Briefly, 25 μg/ml of anti-human Fc antibody at pH 5 was immobilized on a CM5 sensor chip through amine coupling at flow rate of 5 μl/minute on all two flow cells to reach 10,500 RUs. 0.1-1 μg/ml of test antibodies were then injected at 10 μl/min for 1 minute. Captured levels of the antibodies were generally kept below 200 RUs. Subsequently, 3.125-50 nM of cKIT receptor extracellular domains (ECD) were diluted in a 2-fold series and injected at a flow rate of 40 μl/min for 3 min over both reference and test flow cells. Table of tested ECDs is listed below. Dissociation of the binding was followed for 10 min. After each injection cycle, the chip surface was regenerated with 3 M MgCl2 at 10 μl/min for 30 s.

[3] = system: surface cKIT on GIST-T1 cells; experiment: cKIT Ab-mediated internalization by flow cytometry; format: cell-based, human; details: 10 μg/ml, 37° C., FIG. 13A
Protocol: The kinetics of cKIT antibody mediated internalization was evaluated by treating with antibody in a cell monolayer using a temperature shift method and flow cytometry readout. GIST-T1 (kindly provided by Dr. Takahiro Taguchi, Kochi U., Japan) cells were seeded at 2.5×10E5 cells/well in five 12-well tissue culture treated plates (BD Falcon 353043). The cells were incubated in a tissue culture incubator at 37° C. with 5% CO2 overnight. The following day medium was removed and replaced with 450 μl fresh medium. […] All cells were incubated for 1 hr on ice, followed by two washes with 1 mL 1× Phosphate buffered saline (PBS) and resuspended in 500 μl cell culture medium. Plates #2-5 were transferred to 37° C. and harvested at time points; 30 min, 2 hr, 4 hr and 24 hr at 37° C. with 5% CO2. 100 μl of cell dissociation buffer (Gibco Cat#13150-016, Life Technologies, Carlsbad, Calif.) was added to plate#1 (4° C. binding control) and incubated at 37° C. until cells were detached. Cells were neutralized with 100 μl of medium and transferred to a 96 well V-bottom tissue culture treated plate (Costar 3894). […] The following day, all samples were analyzed using the BD FACSCanto II® equipment using a HTS system (BD Biosciences, San Jose, Calif.). Samples were analyzed with FlowJo software to obtain the Geometric Mean values of fluorescence for the Phycoerythrin channel. […]

primary human mast cells [4] = experiment: Mast cell apoptosis (Caspase-Glo 3/7); format: cell-based; details: 0.05-100 nM, 1.6 nM rhSCF, 48 h, FIG. 18
Protocol: Primary human mast cells were cultured from peripheral human blood according to the methods described by Saito et al., Nature Protocols 2006; 1(4):2178-2183. […] Following 30 min incubation at RT, luminescence was recorded on the BioTek® Synergy plate reader (BioTek, Winooski, Vt.).

Row | Molecule | internalization of surface cKIT [1] | mast cell degranulation (primary human mast cells [2]) | Affinity to rat cKIT (rat cKIT ECD) | internalization of surface cKIT [3] | mast cell apoptosis (primary human mast cells [4]) | time of the bulk of the internalization [1]
1 | 20376 (antibody) heavy: QVQLVQSGAEVKKPGSSVKVSCKASGGTFSSYAISWVRQAPGQGLEWMGGIIPMSGRTTYAQKFQGRVTITADESTSTAYMELSSLRSEDTAVYYCARDYGPEAPDYGQSTSYFWYYAFDPWGQGTLVTVSSASTKGPSVFPLAPSSKSTSGGTAALGCLVKDYFPEPVTVSWNSGALTSGVHTFPAVLQSSGLYSLSSVVTVPSSSLGTQTYICNVNHKPSNTKVDKRV[human IgG1 Fc omitted here] light: DIELTQPPSVSVSPGQTASITCSGDNIPSYFVHWYQQKPGQAPVLVIYDDNDRPSGIPERFSGSNSGNTATLTISGTQAEDEADYYCSSWDQDTVVFGGGTKLTVLGQPKAAPSVTLFPPSSEELQANKATLVCLISDFYPGAVTVAWKADSSPVKAGVETTTPSKQSNNKYAASSYLSLTPEQWKSHRSYSCQVTHEGSTVEKTVAPTECS | rapid internalization | do not mediate primary human mast cell degranulation; also recorded: do not induce mast cell degranulation | Not reactive | rapid internalization; also recorded: rapidly internalized | do not mediate primary human mast cell apoptosis; also recorded: do not lead to apoptosis of human primary mast cells ex vivo | 
2 | NEG085 (antibody) heavy: EVQLVESGGGLVQPGGSLRLSCAASGFAFSGYYMAWVRQAPGKGLEWVANINYPGSSTYYLDSVKGRFTISRDNAKNSLYLQMNSLRAEDTAVYYCARGDYYGTTYWYFDVWGQGTTVTVSSASTKGPSVFPLAPSSKSTSGGTAALGCLVKDYFPEPVTVSWNSGALTSGVHTFPAVLQSSGLYSLSSVVTVPSSSLGTQTYICNVNHKPSNTKVDKRV[human IgG1 Fc omitted here] light: DIQMTQSPSSLSASVGDRVTITCRASQSISSYLNWYQQKPGKAPKLLIYYTSRLQSGVPSRFSGSGSGTDFTLTISSLQPEDFATYYCQQGRRLWSFGGGTKVEIKRTVAAPSVFIFPPSDEQLKSGTASVVCLLNNFYPREAKVQWKVDNALQSGNSQESVTEQDSKDSTYSLSSTLTLSKADYEKHKVYACEVTHQGLSSPVTKSFNRGEC | rapid internalization; also recorded: rapidly internalized | do not mediate primary human mast cell degranulation; also recorded: do not induce mast cell degranulation | Not reactive | rapid internalization; also recorded: rapidly internalized | do not mediate primary human mast cell apoptosis; also recorded: do not lead to apoptosis of human primary mast cells ex vivo | 15 min

From patent publication US9789203B2, “cKIT antibody drug conjugates” (Novartis AG, priority 2013, dated 2017)
